Data taken from PubChem BioAssay AID1345082 (National Center for Advancing Translational Sciences (NCATS), 2018).
The campaign covered roughly 94,000 compounds. About 4,000 (4.3%) were called active. This list was built around the results that the source calls inconclusive (neither active nor inactive); the mix of calls is not that of the screen. Calls follow the shape of the dose curve; as a rule, active = well fitted inhibition curve with a large enough effect; inconclusive = small, poorly fitted or top-dose-only effect; inactive = no such curve, though single readings can be large or run the other way. Where the call is inconclusive, the potency comes from a doubtful curve fit.

experiment: Cytotoxic Profiling in NIH 3T3 Cell Line of Diverse Libraries Using Quantitative High-Throughput Screening; conditions: NIH 3T3 viability, CellTiter-Glo ATP luminescence, 48-72 h; series mostly up to 96.7 µM; also: nearly all actives have a fitted effect of over 55% in size
How it was run: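 First NIH 3T3 cells are plated at 400 cells/well; next compound is pinned in; then plates incubate 48 or 72 hr at 37 °C; finally CellTiter-Glo is added and luminescence read after 10 min.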
Potency is read from the fitted curve at half-maximal effect; tags tell the direction and shape of the fitted curve.

Compound	Potency
Cc1noc(C)c1-c1cc2cc(CN(C)C)oc2c(N2CCOCC2)n1	inconclusive: 56.2 µM [inhibitor, partial curve, poor fit]
Cc1ccc(NC(=O)C2CN(S(=O)(=O)C3CC3)CC23CCCCC3)c(F)c1 (configuration not stated)	inconclusive: 50.1 µM [inhibitor, single point]
CCc1cc(=O)n(CC(=O)Nc2cccc(C(C)=O)c2)c(-c2cccc(F)c2)n1	inconclusive: 44.7 µM [inhibitor, partial curve, poor fit]
O=C(c1cc(Cl)ccc1F)N1CCC(Cc2nc(-c3cnccn3)no2)CC1	inconclusive: 44.7 µM [inhibitor, partial curve]
O=C(NC1CCCCC1)c1nn(CC2CC2)c2c1CNCC2	inactive
Cc1noc(C)c1[S+](=O)([O-])N1CCC2(CC1)C(=O)NN=C2c1ccccn1	inactive
CC(C)CCC(=O)N1C[C@@H](CO)[C@H](c2nc(-c3ccncc3)no2)C1	inconclusive: 50.1 µM [inhibitor, partial curve, poor fit]
CCCNC(=O)OC1CN(CC(C)C)C(=O)CN(C(=O)c2cccs2)C1 (configuration not stated)	inconclusive: 79.4 µM [inhibitor, partial curve, poor fit]
O=c1ncn(CC2CC2)c2ccc(-c3ccoc3)nc12	inconclusive: 126 µM [inhibitor, single point]
COCCOc1ccnc(-c2noc([C@@H]3CCCN3Cc3ccc(C(=O)O)cc3)n2)c1	inconclusive: 126 µM [inhibitor, single point]
COc1ccc(CCNC(=O)c2c(C)noc2-c2ccccc2OC)cc1	inconclusive: 50.1 µM [inhibitor, partial curve, poor fit]
Cc1ccc(F)cc1-c1nccc2c(=O)cc(N(C)C)oc12	inconclusive: 35.5 µM [inhibitor, partial curve, poor fit]
CCCCn1c(=O)c(C(=O)NC2CCCc3ccccc32)nc2cccnc21 (configuration not stated)	active: 35.5 µM
Cc1ccc(C(=O)N2CCC[C@@H]2C(=O)N2CCCC(c3nc4ccncc4[nH]3)C2)cc1 (some centres not stated)	inactive
Cc1nn(-c2ccccc2)c2c1C(C)N(C1CCCN(C(=O)c3ccc(C(F)(F)F)cc3)C1)C2=O (configuration not stated)	inconclusive: 44.7 µM [inhibitor, partial curve]
O=C(NC1CCCN(c2cc(-c3ccccc3)[nH]n2)C1)c1ccc2cc[nH]c2c1 (configuration not stated)	inconclusive: 50.1 µM [inhibitor, partial curve, poor fit]
O=C(Nc1cccc(Cl)c1)C1CCCN(Cc2cccc(-c3ccc(F)cc3F)c2)C1 (configuration not stated)	inconclusive: 50.1 µM [inhibitor, partial curve, poor fit]
